From publication PMC9911399, “Two distinct binding modes provide the RNA-binding protein RbFox with extraordinary sequence specificity”
Where a chain is given by its changes, count along the chain named. Some of the results follow.

B1: AUUGCAA (DNA:RNA)
RNA: GGGAGACCGGAAUUCAGAUUGUCCAUUGCAAUUAAAUCCCGUCGUAGCCACCA
DNA 1: CAATCTGAATTCCGGTCTCCC
DNA 2: TGGTGGCTACGACGGGATT
B2: GUUCUGC (DNA:RNA)
RNA: B1 RNA with A25G, G28C, C29U, A30G, A31C
DNA 1: CAATCTGAATTCCGGTCTCCC
DNA 2: TGGTGGCTACGACGGGATT
B3: CGUCAAC (DNA:RNA)
RNA: B1 RNA with A25C, U26G, G28C, C29A, A31C
DNA 1: CAATCTGAATTCCGGTCTCCC
DNA 2: TGGTGGCTACGACGGGATT
B4: CCCUUAA (DNA:RNA)
RNA: B1 RNA with A25C, U26C, U27C, G28U, C29U
DNA 1: CAATCTGAATTCCGGTCTCCC
DNA 2: TGGTGGCTACGACGGGATT
B5: UUGAAGG (DNA:RNA)
RNA: B1 RNA with A25U, U27G, G28A, C29A, A30G, A31G
DNA 1: CAATCTGAATTCCGGTCTCCC
DNA 2: TGGTGGCTACGACGGGATT
B6: AGCUUCC (DNA:RNA)
RNA: B1 RNA with U26G, U27C, G28U, C29U, A30C, A31C
DNA 1: CAATCTGAATTCCGGTCTCCC
DNA 2: TGGTGGCTACGACGGGATT
B7: AACGACC (DNA:RNA)
RNA: B1 RNA with U26A, U27C, C29A, A30C, A31C
DNA 1: CAATCTGAATTCCGGTCTCCC
DNA 2: TGGTGGCTACGACGGGATT
B8: AUGCUCA (DNA:RNA)
RNA: B1 RNA with U27G, G28C, C29U, A30C
DNA 1: CAATCTGAATTCCGGTCTCCC
DNA 2: TGGTGGCTACGACGGGATT
B9: GAUUCGG (DNA:RNA)
RNA: B1 RNA with A25G, U26A, G28U, A30G, A31G
DNA 1: CAATCTGAATTCCGGTCTCCC
DNA 2: TGGTGGCTACGACGGGATT
B10: CCGCAAC (DNA:RNA)
RNA: B1 RNA with A25C, U26C, U27G, G28C, C29A, A31C
DNA 1: CAATCTGAATTCCGGTCTCCC
DNA 2: TGGTGGCTACGACGGGATT
B11: GUGAAAA (DNA:RNA)
RNA: B1 RNA with A25G, U27G, G28A, C29A
DNA 1: CAATCTGAATTCCGGTCTCCC
DNA 2: TGGTGGCTACGACGGGATT
B12: UUAGCCU (DNA:RNA)
RNA: B1 RNA with A25U, U27A, A30C, A31U
DNA 1: CAATCTGAATTCCGGTCTCCC
DNA 2: TGGTGGCTACGACGGGATT
B13: UUAUUCG (DNA:RNA)
RNA: B1 RNA with A25U, U27A, G28U, C29U, A30C, A31G
DNA 1: CAATCTGAATTCCGGTCTCCC
DNA 2: TGGTGGCTACGACGGGATT
B14: UCUGGGU (DNA:RNA)
RNA: B1 RNA with A25U, U26C, C29G, A30G, A31U
DNA 1: CAATCTGAATTCCGGTCTCCC
DNA 2: TGGTGGCTACGACGGGATT
B15: ACCGUAC (DNA:RNA)
RNA: B1 RNA with U26C, U27C, C29U, A31C
DNA 1: CAATCTGAATTCCGGTCTCCC
DNA 2: TGGTGGCTACGACGGGATT
B16: CAAUACU (DNA:RNA)
RNA: GGGAGACCGGAAUUCAGAUUGUCCCAAUACUUUAAAUCCCGUCGUAGCCACCA
DNA 1: CAATCTGAATTCCGGTCTCCC
DNA 2: TGGTGGCTACGACGGGATT
B17: GCAGCAC (DNA:RNA)
RNA: B1 RNA with A25G, U26C, U27A, A31C
DNA 1: CAATCTGAATTCCGGTCTCCC
DNA 2: TGGTGGCTACGACGGGATT
B18: ACCCUUG (DNA:RNA)
RNA: B1 RNA with U26C, U27C, G28C, C29U, A30U, A31G
DNA 1: CAATCTGAATTCCGGTCTCCC
DNA 2: TGGTGGCTACGACGGGATT
B19: AGGCUCC (DNA:RNA)
RNA: B1 RNA with U26G, U27G, G28C, C29U, A30C, A31C
DNA 1: CAATCTGAATTCCGGTCTCCC
DNA 2: TGGTGGCTACGACGGGATT
B20: CUCCGAA (DNA:RNA)
RNA: B1 RNA with A25C, U27C, G28C, C29G
DNA 1: CAATCTGAATTCCGGTCTCCC
DNA 2: TGGTGGCTACGACGGGATT

molecular target: T1, RBFOX1 RRM RbFoxmut (Fox-RRM*) (Homo sapiens, UniProt Q9NWB1 109-208, R118D;E147R;N151S;E152T); assay: EMSA; HiTS-Eq, 1 nM pool, 10 min; buffer printed only for the single-RNA assays: 10 mM Tris pH 7.5, 150 mM NaCl, 3.4 mM EDTA, 0.001% NP-40, 30 C; details: tags: His6 N-terminal (pET28a); label: 5' 32P
T1 sequence: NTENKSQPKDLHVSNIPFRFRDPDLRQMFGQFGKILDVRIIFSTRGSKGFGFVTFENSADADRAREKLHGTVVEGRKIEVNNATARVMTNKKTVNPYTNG
Procedure, shortened: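 Purified wild-type or mutant RbFox RRM at increasing concentrations was equilibrated with 1 nM of 5′-radiolabelled RNA carrying 7 randomized nucleotides for 10 min in 50 µL. Unbound RNA was separated by 8% native PAGE and sequenced. Relative association constants came from read-count changes of each RNA species compared with the control reaction, normalised to the cognate motif.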

| Binder | binding signal |
| --- | --- |
| B1 | 0.0795 KA relative to UGCAUGU |
| B2 | 0.0664 KA relative to UGCAUGU |
| B3 | 0.0588 KA relative to UGCAUGU |
| B4 | 0.097 KA relative to UGCAUGU |
| B5 | 0.0887 KA relative to UGCAUGU |
| B6 | 0.0581 KA relative to UGCAUGU |
| B7 | 0.0712 KA relative to UGCAUGU |
| B8 | 0.1 KA relative to UGCAUGU |
| B9 | 0.0755 KA relative to UGCAUGU |
| B10 | 0.0882 KA relative to UGCAUGU |
| B11 | 0.095 KA relative to UGCAUGU |
| B12 | 0.0889 KA relative to UGCAUGU |
| B13 | 0.122 KA relative to UGCAUGU |
| B14 | 0.0963 KA relative to UGCAUGU |
| B15 | 0.126 KA relative to UGCAUGU |
| B16 | 0.116 KA relative to UGCAUGU |
| B17 | 0.084 KA relative to UGCAUGU |
| B18 | 0.117 KA relative to UGCAUGU |
| B19 | 0.0889 KA relative to UGCAUGU |
| B20 | 0.104 KA relative to UGCAUGU |
